Out of some 310,000 compounds screened, about 2,200 (0.71%) showed an effect of 50% or more. Effects have a minus sign here. The list shows a part of the results.
Molecular target: human ether-à-go-go-related gene (hERG) potassium channel (human, UniProt Q12809)
Assay: primary screen, population patch clamp on CHO cells stably expressing hERG

Chain of human ether-à-go-go-related gene (hERG) potassium channel (Q12809 whole entry, looked up): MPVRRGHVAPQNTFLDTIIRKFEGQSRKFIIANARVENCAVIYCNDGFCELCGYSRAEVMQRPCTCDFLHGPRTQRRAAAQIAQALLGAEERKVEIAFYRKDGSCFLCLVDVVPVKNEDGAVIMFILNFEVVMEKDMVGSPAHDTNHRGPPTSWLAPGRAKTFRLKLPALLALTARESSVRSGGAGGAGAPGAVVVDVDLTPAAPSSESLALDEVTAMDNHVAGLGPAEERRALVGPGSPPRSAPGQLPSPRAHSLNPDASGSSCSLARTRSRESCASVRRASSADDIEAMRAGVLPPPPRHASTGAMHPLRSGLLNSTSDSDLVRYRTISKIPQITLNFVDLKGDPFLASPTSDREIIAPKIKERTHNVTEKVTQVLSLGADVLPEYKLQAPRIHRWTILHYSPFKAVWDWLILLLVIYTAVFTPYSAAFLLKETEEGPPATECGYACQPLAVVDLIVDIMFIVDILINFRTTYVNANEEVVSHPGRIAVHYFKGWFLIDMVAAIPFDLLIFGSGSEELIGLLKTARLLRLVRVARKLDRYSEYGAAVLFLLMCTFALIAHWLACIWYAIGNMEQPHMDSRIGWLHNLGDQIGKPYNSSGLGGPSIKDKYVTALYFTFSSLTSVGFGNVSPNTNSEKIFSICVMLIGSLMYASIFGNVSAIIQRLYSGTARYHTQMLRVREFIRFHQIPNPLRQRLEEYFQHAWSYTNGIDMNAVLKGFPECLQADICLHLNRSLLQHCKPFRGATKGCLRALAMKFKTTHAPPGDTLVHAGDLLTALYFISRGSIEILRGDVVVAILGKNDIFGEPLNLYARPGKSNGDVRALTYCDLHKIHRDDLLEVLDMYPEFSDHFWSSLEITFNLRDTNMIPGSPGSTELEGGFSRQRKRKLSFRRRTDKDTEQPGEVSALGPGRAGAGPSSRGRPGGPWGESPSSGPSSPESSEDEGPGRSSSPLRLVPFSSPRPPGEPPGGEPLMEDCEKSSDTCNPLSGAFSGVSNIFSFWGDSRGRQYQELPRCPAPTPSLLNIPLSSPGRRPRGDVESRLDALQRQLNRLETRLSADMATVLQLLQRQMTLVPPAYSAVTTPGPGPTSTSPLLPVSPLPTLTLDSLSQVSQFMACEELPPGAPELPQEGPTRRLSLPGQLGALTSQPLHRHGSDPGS

Row | Structure (SMILES) | hERG current change (%, negative = inhibition) at 1uM [%]
1 | Cc1cc2cc(CN(CC3CCCO3)C(=O)c3cnccn3)c(=O)[nH]c2cc1C (stereo not shown) | 12.3
2 | Cn1nc(-c2ccccc2)c(CO)c1Oc1ccc(F)cc1 | -3.39
3 | CCc1ccc(C(C)NC(=O)C2CCCO2)cc1 (stereo not shown) | 8.63
4 | COc1ccc(S(=O)(=O)N2CCOCC2)c(Cl)c1Cl | -14.7
5 | Cc1nnc(SCC(=O)NCC(=O)Nc2ccc(F)c(F)c2F)n1Cc1ccccc1 | 17.9
6 | COc1ccc(C(=O)NCc2c(C)nn(Cc3ccccc3)c2C)cc1S(=O)(=O)N1CCOCC1 | 2.84
7 | CC(=O)c1cc2ccc(O)cc2oc1=O | 11.5
8 | CN(Cc1nc(Cc2cccc(F)c2)no1)CC1COCCO1 (stereo not shown) | 16.1
9 | Cc1ccc(NC(=O)COC(=O)C2CCN(c3ccc(C(F)(F)F)cn3)CC2)cc1 | 4.87
10 | Br.Cc1ccc(Nc2nc(-c3ccc(S(=O)(=O)N4CCOCC4)cc3)cs2)cc1Cl | 3.44
11 | COc1cc(C2C(C(=O)c3ccc(C)o3)=C(O)C(=O)N2Cc2cccnc2)ccc1O (stereo not shown) | 12
12 | COc1ccc(CCN2CC(C(=O)OCC(=O)NC(C)c3cccc(Cl)c3)CC2=O)cc1OC (stereo not shown) | 5
13 | COC(=O)c1c(NC(=O)C2CCCCC2C(=O)O)sc2c1CCCCC2 (stereo not shown) | 1.8
14 | CCCn1nc(-c2ccccc2)c2nc3ccccc3nc21 | 8.01
15 | COc1ccccc1NC(=O)Cc1coc2cc(C)ccc12 | -3.83
16 | O=C(c1cccc(N2CCCC2=O)c1)N1CCN(c2ccccc2)CC1 | 10.2
17 | CC12CCC(C(=O)Nc3nccs3)(OC1=O)C2(C)C (stereo not shown) | 1.47
18 | Cc1cc(Cl)ccc1NC(=O)CN1C(=O)NC2(CCCc3ccccc32)C1=O (stereo not shown) | 12
19 | NC(=O)c1cc([N+](=O)[O-])ccc1NCc1cccc(N)c1 | 12.6
20 | O=C(O)CCSc1nnnn1-c1ccccc1 | -2.77
21 | CSCCC(NC(=O)c1ccccc1Cl)C(=O)NNC(=O)c1ccccc1O (stereo not shown) | 11.7
22 | Nc1ccc(Br)c[n+]1Cc1cccc2cccnc12.[Br-] | -22

Row | Structure (SMILES) | hERG current change (%, negative = inhibition) at 1uM [%]
23 | COc1ccc(-c2nc3c(-c4ccccc4)cnn3cc2C)cc1F | 5.15
24 | COCCn1c(SCC(=O)N2CCCC2)nc2c([nH]c3ccccc32)c1=O | -26
25 | CC(=O)c1sc2ccccc2c1OC(=O)c1ccco1 | 6.21
26 | Cc1cc(C)c(S(=O)(=O)N2CCCCC2)c(C)c1-n1ncnn1 | 12.5
27 | O=C(CN1C(=O)CC(c2ccccc2)S(=O)(=O)c2ccccc21)N1CCCC1 (stereo not shown) | 11.4
28 | O=S(=O)(NC1CCCCC1)c1cccc2nsnc12 | 18.5
29 | Cc1c(C(=O)Nc2c(F)cc(F)cc2Br)sc2ncn(CC(=O)N3CCCC3)c(=O)c12 | 23.2
30 | CCC(CC)C(=O)NCCc1ccc(S(N)(=O)=O)cc1 | 16.7
31 | O=C(COC(=O)C1CCN(S(=O)(=O)c2cccs2)CC1)c1cc2ccccc2o1 | 5.54
32 | O=C(CC(=O)N/N=C/c1ccccc1O)NCc1cccnc1 | -11.2
33 | CCCCc1c(C)c(C#N)c2[nH]c3ccccc3n2c1=O | 18.9
34 | CCc1ccc(C(O)(C(C)C)C(CN2CCOCC2)c2ccccc2)cc1.Cl (stereo not shown) | 5.45
35 | O=C(CN1CCCCC1)N/N=C/c1ccc(Cl)cc1 | -22.5
36 | COC(=O)[C@@H](NC(=O)Nc1ccc(OC)cc1)C(C)C | 14.5
37 | COc1ccc(Cl)cc1NC(=O)c1cc(C)no1 | 13.5
38 | O=C(NCC(=O)N(Cc1cccs1)C(C(=O)NC1CCCC1)c1cccnc1)c1ccco1 (stereo not shown) | 11.3
39 | O=C(O)C(=O)O.O=[N+]([O-])c1cccc(OCCCN2CCC(Cc3ccccc3)CC2)c1 | -82.9
40 | O=S(=O)(c1c(F)cccc1F)N1CCN(C(=S)NCc2ccc3c(c2)OCO3)CC1 | 27
41 | CC1=C(C(N)=O)C(c2cccnc2)n2nc(SCc3ccccc3Cl)nc2N1 (stereo not shown) | 1.55
42 | COc1ccc(CCNC(=O)c2ccc(N3CCCCS3(=O)=O)cc2)cc1OC | 13.7
43 | COc1cccc(N/C(SCc2ccccc2Cl)=C(/C#N)C(=O)NCc2cccs2)c1 | 11.7
44 | COC(=O)C1=C(c2ccc(OC(F)(F)F)cc2)C[C@@H]2CC[C@H]1N2C(=O)NCCNC(C)=O | 17.8

Row | Structure (SMILES) | hERG current change (%, negative = inhibition) at 1uM [%]
45 | COc1ccc(-c2noc(C3CCCN(S(=O)(=O)c4cccc(Cl)c4)C3)n2)cc1OC (stereo not shown) | 2.69
46 | Cc1ccc(S(=O)(=O)N(CC(=O)N=Nc2c(O)[nH]c3ccccc23)c2ccc(C)c(C)c2)cc1 | 10.9
47 | CCN(C(=O)C1CCCN(c2nc(-c3ccc(OC)cc3)no2)C1)c1ccc(OC)cc1 (stereo not shown) | 10.4
48 | O=C(CSc1nc2ccccc2[nH]1)Nc1nc(-c2ccccc2)c(-c2ccccc2)o1 | 11.2
49 | COc1ccc(NC(=O)CN(C)CC(=O)N(C)C2(C#N)CCC(C)CC2)cc1 (stereo not shown) | 1.38
50 | CCC(C)c1ccc(S(=O)(=O)N2CCN(C(C)CC(=O)O)CC2)cc1 (stereo not shown) | 8.4
51 | CCc1cc(=O)oc2cc3oc(C)c(C)c3cc12 | 1.03
52 | CCC(C)c1ccccc1N1CC(C(=O)Nc2ccc(N3CCOCC3)cc2)CC1=O (stereo not shown) | 9.32
53 | CCOc1ccc(C2C(C#N)=C(N)Oc3cc(C)n(Cc4ccco4)c(=O)c32)cc1OC (stereo not shown) | 9.37
54 | CC(C)C(C(=O)OCC(=O)c1ccc2c(c1)NC(=O)CO2)N1C(=O)c2ccccc2C1=O (stereo not shown) | -1.04
55 | Cc1c(C(=O)NCc2ccccn2)oc2c(Cl)cccc12 | -3.74
56 | Cc1nc2cc(C(=O)OCC(=O)NC3CCS(=O)(=O)C3)ccc2n1-c1ccccc1 (stereo not shown) | 3.19
57 | CCCCc1cc(=O)oc2cc(OCC(=O)Nc3ccccn3)ccc12 | 14.8
58 | CSc1ccc(-c2nc(O)c3cnccn23)cc1 | 11.3
59 | CC(NC(=O)CSc1nnc(CC(=O)Nc2ccc(Cl)c(Cl)c2)n1C)c1ccccc1 (stereo not shown) | 8.96
60 | CCOC(=O)C1CCCN(S(=O)(=O)c2cc3c4c(c2)CCC(=O)N4CCC3)C1 (stereo not shown) | 8.71
61 | O=C(CNC(=O)c1ccccc1)Oc1ccc([N+](=O)[O-])cc1 | 12
62 | Cc1cc(NC(=O)COC(=O)C2CCC2)no1 | 11.4
63 | CCn1c(=O)c(C(=O)CN2CCc3ccccc32)c(N)n(Cc2ccccc2)c1=O | 0.0849
64 | CCOCCCNS(=O)(=O)c1ccc(OC)c(Cl)c1Cl | 7.12
65 | O=C(Cc1ccc(Cl)cc1)Nc1ccc2oc(-c3ccncc3)nc2c1 | 9.34
66 | O=C(Nc1cc(S(=O)(=O)N2CCOCC2)ccc1Cl)c1cc2ccccc2o1 | -3.17

Row | Structure (SMILES) | hERG current change (%, negative = inhibition) at 1uM [%]
67 | CN(CC(=O)Nc1ccccc1N1CCCC1)S(=O)(=O)c1ccc(F)cc1 | 20.6
68 | COc1ccccc1CNC(=O)CCCNS(=O)(=O)c1cccc2nsnc12 | 6.81
69 | COc1ccc(S(=O)(=O)N2CCN(C)CC2)cc1C(=O)N1CCCCC1 | 5.11
70 | CCOC(=O)N1CCC(NC(=O)c2cc(-c3ccc(F)cc3)[nH]c2C)CC1 | 11.6
71 | O=C(Nc1cccc2ncccc12)c1cc2ccccc2o1 | 2.99
72 | COc1ccc(N(C=O)C(=S)SC)cc1 | 13.1
73 | CCOc1ccc(C(=O)C(CN2CCOCC2)c2ccccc2)cc1.Cl (stereo not shown) | 8.5
74 | Cc1ccc(NC(=O)COC(=O)c2cccc3c2C(=O)c2ccccc2C3=O)c(C)c1 | 7.07
75 | CCCNC(=O)C(=O)N/N=C/c1ccc(OCc2ccccc2)cc1 | 20.6
76 | CCO/N=C(/C)c1c(O)cc(-c2ccccc2)n(-c2ccccc2)c1=O | 12.1
77 | CCOC(=O)C1=C(C)N(c2ccc(OCC)cc2)C(=O)/C1=C\c1ccco1 | 6.73
78 | CCCN1C(=O)c2cc(C(=O)Nc3ccccc3OC)ccc2C1Nc1ccccc1OC (stereo not shown) | 3.4
79 | O=C(C1=C[C@H](C2CC2)C[C@H](OCCCCO)O1)N1CCN(Cc2ccc3c(c2)OCO3)CC1 | -1.08
80 | O=c1c(S(=O)(=O)c2ccc(Cl)cc2)cn(Cc2ccccc2)c2ccc(F)cc12 | 6.48
81 | CC(C)(O)CC[C@@H](O)[C@](C)(O)[C@H]1CC[C@@]2(O)C3=CC(=O)[C@@H]4C[C@@H](O)[C@@H](O)C[C@]4(C)C3CC[C@]12C (stereo partly shown) | -10.8
82 | Cn1c(C2=C(O)CN(Cc3ccccc3)C2=N)nc2ccccc21 | -7.36
83 | COc1ccc(CC(=O)NCc2n[nH]c(=S)n2-c2cccc(Cl)c2)cc1 | 4.25
84 | CCc1nc(N2CCN(C(=O)c3ccco3)CC2)c2oc3ccccc3c2n1.Cl | -13
85 | O=C(Nc1ccc2c(c1)OCCO2)C(c1ccc(F)cc1)N1CCCCC1 (stereo not shown) | 12.3

From paper PMC4336329 (PLoS ONE, 2015)
